According to the supplement of paper PMC6657886:

How the values were obtained:
Test in all cases: Agar dilution on enriched GC agar; resistance determinants by microarray.
benzylpenicillin = compound: CC1(C)S[C@@H]2[C@H](NC(=O)Cc3ccccc3)C(=O)N2[C@H]1C(=O)O [benzylpenicillin]
azithromycin = compound: CC[C@H]1OC(=O)[C@H](C)[C@@H](O[C@H]2C[C@@](C)(OC)[C@@H](O)[C@H](C)O2)[C@H](C)[C@@H](O[C@@H]2O[C@H](C)C[C@H](N(C)C)[C@H]2O)[C@](C)(O)C[C@@H](C)CN(C)[C@H](C)[C@@H](O)[C@]1(C)O [azithromycin]
tetracycline = compound: CN(C)[C@@H]1C(O)=C(C(N)=O)C(=O)[C@@]2(O)C(O)=C3C(=O)c4c(O)cccc4[C@@](C)(O)[C@H]3C[C@@H]12 [tetracycline]
spectinomycin = compound: CN[C@@H]1[C@H](O)[C@H](NC)[C@H]2O[C@@]3(O)C(=O)C[C@@H](C)O[C@H]3O[C@@H]2[C@H]1O [spectinomycin]
ceftriaxone = compound: CO/N=C(\C(=O)N[C@@H]1C(=O)N2C(C(=O)O)=C(CSc3nc(=O)c(O)nn3C)CS[C@H]12)c1csc(N)n1 [ceftriaxone]

| Test System | MIC (benzylpenicillin) [µg/mL] | MIC (azithromycin) [µg/mL] | MIC (tetracycline) [µg/mL] | MIC (spectinomycin) [µg/mL] | MIC (ceftriaxone) [µg/mL] |
| --- | --- | --- | --- | --- | --- |
| Neisseria gonorrhoeae isolate 131 (blaTEM plasmid: no, gyrA: Phe91, Gly95, mtrR promoter: wild type, parC: Arg87, Glu91, penA: ins345Asp, ponA: Pro421, porB: Asp120, Ala121, rpsJ: Met57, tetM plasmid: no) | 0.25 | 0.015 | 0.5 | 32 | 0.004 |
| Neisseria gonorrhoeae isolate 77 (blaTEM plasmid: no, gyrA: wild type, mtrR promoter: wild type, parC: wild type, penA: wild type, ponA: wild type, porB: wild type, rpsJ: wild type, tetM plasmid: no) | ≤ 0.015 | 0.06 | 0.12 | 16 | ≤ 0.002 |
| Neisseria gonorrhoeae isolate 294 (blaTEM plasmid: no, gyrA: wild type, mtrR promoter: wild type, parC: wild type, penA: ins345Asp, ponA: Pro421, porB: wild type, rpsJ: Met57, tetM plasmid: no) | 0.25 | 0.12 | 0.5 | 8 | ≤ 0.002 |
| Neisseria gonorrhoeae isolate 234 (blaTEM plasmid: no, gyrA: wild type, mtrR promoter: wild type, parC: wild type, penA: wild type, ponA: wild type, porB: wild type, rpsJ: wild type, tetM plasmid: no) | ≤ 0.015 | 0.06 | 0.12 | 16 | ≤ 0.002 |
| Neisseria gonorrhoeae isolate 228 (blaTEM plasmid: no, gyrA: wild type, mtrR promoter: wild type, parC: wild type, penA: wild type, ponA: wild type, porB: wild type, rpsJ: wild type, tetM plasmid: no) | ≤ 0.015 | 0.06 | 0.12 | 16 | ≤ 0.002 |
| Neisseria gonorrhoeae isolate 333 (blaTEM plasmid: no, gyrA: Phe91, Asn95, mtrR promoter: wild type, parC: Arg87, Glu91, penA: ins345Asp, ponA: Pro421, porB: Asp120, Gly121, rpsJ: Met57, tetM plasmid: no) | 0.06 | 0.25 | 0.06 | 16 | ≤ 0.002 |
| Neisseria gonorrhoeae isolate 124 (blaTEM plasmid: no, gyrA: wild type, mtrR promoter: wild type, parC: wild type, penA: wild type, ponA: wild type, porB: wild type, rpsJ: wild type, tetM plasmid: no) | ≤ 0.015 | 0.06 | 0.12 | 16 | ≤ 0.002 |
| Neisseria gonorrhoeae isolate 40 (blaTEM plasmid: no, gyrA: wild type, mtrR promoter: wild type, parC: wild type, penA: wild type, ponA: wild type, porB: wild type, rpsJ: wild type, tetM plasmid: no) | ≤ 0.015 | 0.03 | 0.06 | 4 | ≤ 0.002 |
| Neisseria gonorrhoeae isolate 354 (blaTEM plasmid: no, gyrA: wild type, mtrR promoter: wild type, parC: wild type, penA: wild type, ponA: wild type, porB: wild type, rpsJ: wild type, tetM plasmid: no) | ≤ 0.015 | 0.015 | 0.5 | 32 | ≤ 0.002 |
| Neisseria gonorrhoeae isolate 465 (blaTEM plasmid: no, gyrA: wild type, mtrR promoter: wild type, parC: wild type, penA: wild type, ponA: wild type, porB: wild type, rpsJ: wild type, tetM plasmid: no) | ≤ 0.015 | 0.12 | 0.25 | 16 | ≤ 0.002 |
| Neisseria gonorrhoeae isolate 7 (blaTEM plasmid: no, gyrA: Phe91, Asn95, mtrR promoter: wild type, parC: Arg87, Glu91, penA: ins345Asp, ponA: Pro421, porB: wild type, rpsJ: Met57, tetM plasmid: no) | 0.25 | 0.25 | 1 | 16 | ≤ 0.002 |
| Neisseria gonorrhoeae isolate 49 (blaTEM plasmid: no, gyrA: wild type, mtrR promoter: wild type, parC: wild type, penA: wild type, ponA: wild type, porB: wild type, rpsJ: wild type, tetM plasmid: no) | ≤ 0.015 | 0.12 | 0.12 | 16 | ≤ 0.002 |
| Neisseria gonorrhoeae isolate 390 (blaTEM plasmid: no, gyrA: Ser91, Asn95, mtrR promoter: wild type, parC: Arg87, Glu91, penA: ins345Asp, ponA: Pro421, porB: wild type, rpsJ: Met57, tetM plasmid: no) | 0.12 | 0.12 | 0.5 | 16 | 0.004 |
| Neisseria gonorrhoeae isolate 192 (blaTEM plasmid: no, gyrA: wild type, mtrR promoter: wild type, parC: wild type, penA: wild type, ponA: wild type, porB: wild type, rpsJ: wild type, tetM plasmid: no) | ≤ 0.015 | 0.12 | 0.25 | 16 | ≤ 0.002 |
| Neisseria gonorrhoeae isolate 142 (blaTEM plasmid: no, gyrA: Phe91, Asp95, mtrR promoter: -35delA, parC: wild type, penA: ins345Asp, ponA: wild type, porB: Lys120, Asn121, rpsJ: Met57, tetM plasmid: no) | 0.12 | 1 | 2 | 32 | ≤ 0.002 |
| Neisseria gonorrhoeae isolate 108 (blaTEM plasmid: no, gyrA: wild type, mtrR promoter: wild type, parC: wild type, penA: ins345Asp, ponA: wild type, porB: wild type, rpsJ: Met57, tetM plasmid: no) | 0.25 | 0.015 | 0.5 | 4 | ≤ 0.002 |
| Neisseria gonorrhoeae isolate 158 (blaTEM plasmid: no, gyrA: wild type, mtrR promoter: wild type, parC: Arg87, Glu91, penA: ins345Asp, ponA: Pro421, porB: Asn120, Asp121, rpsJ: Met57, tetM plasmid: no) | 2 | 0.5 | 4 | 32 | 0.015 |
| Neisseria gonorrhoeae isolate 45 (blaTEM plasmid: no, gyrA: wild type, mtrR promoter: wild type, parC: wild type, penA: wild type, ponA: wild type, porB: wild type, rpsJ: wild type, tetM plasmid: no) | 0.25 | 0.06 | 0.5 | 16 | ≤ 0.002 |
| Neisseria gonorrhoeae isolate 441 (blaTEM plasmid: no, gyrA: wild type, mtrR promoter: wild type, parC: wild type, penA: wild type, ponA: wild type, porB: wild type, rpsJ: wild type, tetM plasmid: no) | 0.03 | 0.12 | 0.06 | 8 | ≤ 0.002 |
| Neisseria gonorrhoeae isolate 268 (blaTEM plasmid: no, gyrA: wild type, mtrR promoter: wild type, parC: wild type, penA: wild type, ponA: wild type, porB: wild type, rpsJ: wild type, tetM plasmid: no) | ≤ 0.015 | 0.12 | 1 | 16 | ≤ 0.002 |

MIC of clinical N. gonorrhoeae isolates (2015-2017) by agar dilution on GC agar with 1% IsoVitaleX (ranges not stated); higher = less susceptible. No active / inactive call per row; the paper counts benzylpenicillin above 1 and ceftriaxone above 0.125 mg/L as resistant (EUCAST). The method is stated for benzylpenicillin and ceftriaxone and assumed for the other drugs. '<=' is inferred from pile-ups at the end values. Isolates are numbered anew.
